Reference: PubChem BioAssay AID624417 (National Center for Advancing Translational Sciences (NCATS), 2012)
Screen size: about 410,000 compounds; about 6,400 (1.6%) were called active. Inconclusive results, whose numbers are uncertain, are shown with a selection of clear calls. The call rests on the fitted dose curve; in most records, active means well fitted inhibition curve with a large enough effect; inconclusive means small, poorly fitted or top-dose-only effect; inactive means no such curve, though single readings can be large or run the other way. Potencies of inconclusive entries are left out as doubtful fits.

biological target: Glucagon-like peptide 1 receptor (Homo sapiens) (UniProt P43220); assay: qHTS of GLP-1 Receptor Inverse Agonists (Inhibition Mode); details: HEK293 GLP-1R CRE-luciferase, luminescence, 24 h, GLP-1R form is constitutively active; series mostly up to 38.3 µM; further: nearly all actives have a fitted effect of over 55% in size
How it was run: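 Luminescence readout: a drop in cAMP-driven luciferase signal flags inverse agonism at a constitutively active GLP-1R stably expressed in HEK293. Compound exposure lasted 24 hr at 37 deg C, 5% CO2.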
Potency means the concentration at half of the fitted maximal effect; tags describe the fitted curve by direction and shape.

Chain of UniProt P43220 (P43220 whole entry, looked up): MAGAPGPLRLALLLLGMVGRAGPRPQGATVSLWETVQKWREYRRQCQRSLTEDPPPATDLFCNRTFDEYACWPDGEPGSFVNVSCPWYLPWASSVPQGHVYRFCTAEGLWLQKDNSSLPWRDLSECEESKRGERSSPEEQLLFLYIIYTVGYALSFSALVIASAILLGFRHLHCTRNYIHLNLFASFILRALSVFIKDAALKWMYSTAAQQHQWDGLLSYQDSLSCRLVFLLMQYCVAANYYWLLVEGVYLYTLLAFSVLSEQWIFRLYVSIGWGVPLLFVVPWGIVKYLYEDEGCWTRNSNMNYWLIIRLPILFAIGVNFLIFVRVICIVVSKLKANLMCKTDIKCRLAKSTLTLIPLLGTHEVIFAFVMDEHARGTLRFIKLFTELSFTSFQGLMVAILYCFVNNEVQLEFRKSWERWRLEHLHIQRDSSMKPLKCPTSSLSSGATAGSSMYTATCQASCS

Row | Structure (SMILES) | Potency
1 | Cc1ccc(NC(=O)c2cc(S(=O)(=O)N3CCCc4ccccc43)ccc2F)cc1F | active: 12.6 µM
2 | N#Cc1nc(COc2ccc(-c3ccccc3)cc2)oc1NCCCN1CCOCC1 | inconclusive [inhibitor, partial curve, poor fit]
3 | COc1cccc(Nc2nc(NCCO)c3ccccc3n2)c1 | inconclusive [inhibitor, partial curve, poor fit]
4 | CCCCSc1nc(C)cc(NC(=S)Nc2ccc(OC)cc2)n1 | inconclusive [inhibitor, partial curve, poor fit]
5 | CC(C)Oc1cc(F)ccc1-c1cc(C(=O)NCC2CCCCC2)[nH]n1 | inconclusive [inhibitor, single point]
6 | CCN(Cc1ccncc1)C(=S)Nc1ccc(Cl)cc1 | inconclusive [inhibitor, single point]
7 | COCCn1c(=NC(=O)c2ccc(S(=O)(=O)N3CCc4ccccc4C3)cc2)sc2cc(S(N)(=O)=O)ccc21 | inactive
8 | CCN(CC)CC#CCC(O)(c1ccccc1)C1CCCCC1 (centres undefined) | inconclusive [inhibitor, partial curve, poor fit]
9 | COc1ccc(-c2ccc(CN3C(C)C(=O)N(Cc4cn(CCC5OCCO5)nn4)CCS3(=O)=O)cc2)cn1 (centres undefined) | inactive
10 | O=C(NCc1ccccc1)c1nc[nH]c1C(=O)NCc1ccccc1 | inconclusive [inhibitor, single point]
11 | Cc1sc2ncnc(N3CCC(C(=O)Nc4cc(Cl)ccc4Cl)CC3)c2c1C | active: 10 µM
12 | COc1ccc(C(=O)N2N=C(c3ccccc3)CC2(O)C(F)(F)F)cc1 (centres undefined) | inconclusive [inhibitor, partial curve, poor fit]
13 | Cc1cccc(C)c1OCC(=O)NCC1COc2ccccc2O1 (centres undefined) | inconclusive [inhibitor, single point]
14 | COc1ccccc1NC(=O)Cc1ccc(-c2ccccc2)cc1 | inconclusive [inhibitor, single point]
15 | Cc1ccc(CSc2ccc3nnc(CCNS(=O)(=O)c4ccc(C)cc4)n3n2)cc1 | inactive
16 | C=CC#CC1(O)CC(C)[N+](C)(C)CC1C (centres undefined) | inactive
17 | C#CC(C)(C)NC(=O)c1ccc(-c2ccccc2F)cc1 | inconclusive [inhibitor, single point]
18 | CN(C)c1ccc(N=Nc2ccccc2C(=O)OCC(=O)NC2CCCC2)cc1 | inconclusive [inhibitor, partial curve]
19 | Cc1cccc(NCc2cc(Cl)cc(Cl)c2O)n1 | inconclusive [inhibitor, single point]
